# According to article PMC7205891:
# Sequences of proteins named here, by UniProt entry; tags and fusion partners are left off.
# UniProt Q99873: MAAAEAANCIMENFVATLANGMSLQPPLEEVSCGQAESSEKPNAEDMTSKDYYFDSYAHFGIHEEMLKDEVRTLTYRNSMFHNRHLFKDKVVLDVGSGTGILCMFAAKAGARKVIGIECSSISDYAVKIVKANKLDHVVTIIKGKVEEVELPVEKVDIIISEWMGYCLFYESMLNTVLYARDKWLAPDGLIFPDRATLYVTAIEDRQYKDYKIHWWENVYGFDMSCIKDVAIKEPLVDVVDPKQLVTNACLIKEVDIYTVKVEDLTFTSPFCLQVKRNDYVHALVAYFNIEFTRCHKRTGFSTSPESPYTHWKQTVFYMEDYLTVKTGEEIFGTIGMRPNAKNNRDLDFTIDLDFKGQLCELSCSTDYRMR
# No constants are given. Whether binding was seen depends on the method and setting. In cells and extracts the contact can be indirect. Some entries that bind do so weakly or less than the wild type.
# Key:
# Experiment in all cases: co-IP; HEK293 cells expressing Flag-UBAP2L wild type or mutants; lysis in 0.3% CHAPS, 40 mM HEPES pH 7.4, 150 mM NaCl; IP with Flag antibody and protein G Sepharose, 4 °C; WB of endogenous proteins; no RNase A; with/without AS (500 μM, 1 h), stress recovery, PRMT1-siRNA, HA-PRMT1, Adox, UBAP2L knock-down; some lanes with EE (2 mM EDTA, 2.5 mM EGTA) or 5 mM MgCl2 in the lysis buffer
# [1] = biological target: Flag-tagged full-length human UBAP2L, wild type (human) (UniProt Q14157)
# [2] = biological target: Flag-tagged UBAP2L with deleted amino acids 2–130 (lacking the UBA domain) (human) (UniProt Q14157)
# [3] = biological target: Flag-tagged UBAP2L Δ131–190 (lacking the RGG motif) (human) (UniProt Q14157)
# [4] = biological target: Flag-tagged UBAP2L R187A (human) (UniProt Q14157)
# [5] = biological target: Flag-tagged UBAP2L Δ239–290 (lacking the two putative RNA-binding regions) (human) (UniProt Q14157)
# [6] = biological target: Flag-tagged UBAP2L Δ495–526 (lacking the DUF3695 domain) (human) (UniProt Q14157)
# [7] = biological target: Flag-tagged UBAP2L R_(187+190)A (human) (UniProt Q14157)
# [8] = biological target: Flag-tagged UBAP2L R190A (human) (UniProt Q14157)
substance,measurement,setting,value
"protein arginine methyltransferase PRMT1, endogenous (from UniProt Q99873 1-371) (enzyme)",binding,[1],binds
same,binding,[2],binds
same,binding,[3],no binding
same,binding,[4],binds
same,binding,[5],binds
same,binding,[6],binds
same,binding,[7],binds
same,binding,[8],binds
